In PMC5892938:
The other results are listed elsewhere or left out. At the low end of the ranking the order means little.

What follows are sequences tested against GST-SBP-SLBP (stem-loop binding protein) (UniProt Q14493) (assay: targeted RNA Bind-n-Seq). Details: RBNS binding buffer: 25 mM Tris pH 7.5, 150 mM KCl, 3 mM MgCl2, 0.1% Tween, 0.5 mg/mL BSA, 1 mM DTT; 27 nM protein, 750 pM RNA pool; temperature not stated; high values mean tight binding.
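Further: DESeq read counts versus GST-SBP nonspecific binding control pulldown.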

| Sequence | binding signal (log2 fold change) |
| --- | --- |
| GGUCACGUCUCAAUCAACUCAUCUCCAGGAGUUUGCUCCUGUAAUUUCAACAGCUCGCAGUCAAG | 0.0228 |
| GGUCACGUCUCAAUCAACUCGUUUUCAGGAGUUUCCUCCUGCUUUUUCAACAGCUCGCAGUCAAG | 0.0986 |
| GGUCACGUCUCAAUCAACUCCUACGAGGGGGGGAAAACCCCUUUACCCUCACUAUCAACAGCUCGCAGUCAAG | -0.185 |
| GGUCACGUCUCAAUCAACUCUCUCGAGGGGGGGAAAACCCCUUUACCCUCACAUUCAACAGCUCGCAGUCAAG | -0.0368 |
| GGUCACGUCUCAAUCAACUCUUCUUCCAGGGAAACCCCUGGUUAUGUCAACAGCUCGCAGUCAAG | 0.0256 |
| GGUCACGUCUCAAUCAACUCUAUCCCAGGAGUUUCCUCCUGUAUACUCAACAGCUCGCAGUCAAG | 0.121 |
| GGUCACGUCUCAAUCAACUCAAUUUCCAGGGAAAACCCUGGUUUUCUCAACAGCUCGCAGUCAAG | -0.00218 |
| GGUCACGUCUCAAUCAACUCAUCCCCAGGAGUUUUCUCCUGCAAAGUCAACAGCUCGCAGUCAAG | -0.137 |
| GGUCACGUCUCAAUCAACUCAAUCUCCAGGGAAAGCCCUGGUUUUCUCAACAGCUCGCAGUCAAG | 0.0377 |
| GGUCACGUCUCAAUCAACUCAGUCCCAGGAGUUUCCUCCUGUAUAUUCAACAGCUCGCAGUCAAG | -0.0465 |
| GGUCACGUCUCAAUCAACUCAAUCCCAGGAGUUUGCUCCUGCAUUCUCAACAGCUCGCAGUCAAG | 0.124 |
| GGUCACGUCUCAAUCAACUCAGUUCCCAGGGAAAACCCUGGCAUUUUCAACAGCUCGCAGUCAAG | 0.253 |
| GGUCACGUCUCAAUCAACUCUUCCCCCAGGGAAAGCCCUGGCUUUCUCAACAGCUCGCAGUCAAG | 0.0293 |
| GGUCACGUCUCAAUCAACUCAAUUCCCAGGGAAACCCCUGGUUAUCUCAACAGCUCGCAGUCAAG | 0.185 |
| GGUCACGUCUCAAUCAACUCUUCCUCCAGGGAAAACCCUGGUAAUGUCAACAGCUCGCAGUCAAG | 0.123 |
| GGUCACGUCUCAAUCAACUCAUCUUCCAGGGAAAACCCUGGUUUUUUCAACAGCUCGCAGUCAAG | -0.154 |
| GGUCACGUCUCAAUCAACUCAAUCUCCAGGGAAAACCCUGGUUUUCUCAACAGCUCGCAGUCAAG | -0.291 |
| GGUCACGUCUCAAUCAACUCAUCGCCAGGAGUUUUCUCCUGUUAAUUCAACAGCUCGCAGUCAAG | 0.223 |
| GGUCACGUCUCAAUCAACUCACAAGAGGGGGGGAAAACCCCUUUACCCUCCUUAUCAACAGCUCGCAGUCAAG | 0.265 |
| GGUCACGUCUCAAUCAACUCUACUCCCAGGGAAACCCCUGGUAUACUCAACAGCUCGCAGUCAAG | -0.0845 |
| GGUCACGUCUCAAUCAACUCUUUCGAGGGGGGGAAAACCCCUUUACCCUCAAUCUCAACAGCUCGCAGUCAAG | -0.00262 |
| GGUCACGUCUCAAUCAACUCAACUUCAGGAGUUUGCUCCUGUAUAUUCAACAGCUCGCAGUCAAG | 0.0392 |
| GGUCACGUCUCAAUCAACUCUACUUCCAGGGAAAACCCUGGUUUAUUCAACAGCUCGCAGUCAAG | 0.0206 |
| GGUCACGUCUCAAUCAACUCCUCCGAGGGGGGGAAAACCCCUUUACCCUCAACAUCAACAGCUCGCAGUCAAG | -0.143 |
| GGUCACGUCUCAAUCAACUCUUCCUCCAGGGAAAUCCCUGGUAUUCUCAACAGCUCGCAGUCAAG | -0.215 |

| Sequence | binding signal (log2 fold change) |
| --- | --- |
| GGUCACGUCUCAAUCAACUCUUUUCCCAGGGAAAGCCCUGGUUAAUUCAACAGCUCGCAGUCAAG | 0.00624 |
| GGUCACGUCUCAAUCAACUCUACUUCCAGGGAAAUCCCUGGCAUUUUCAACAGCUCGCAGUCAAG | -0.132 |
| GGUCACGUCUCAAUCAACUCCACAGAGGGGGGGAAAACCCCUUUACCCUCAUAAUCAACAGCUCGCAGUCAAG | 0.145 |
| GGUCACGUCUCAAUCAACUCUAUUUCAGGAGUUUUCUCCUGCUAACUCAACAGCUCGCAGUCAAG | -0.00845 |
| GGUCACGUCUCAAUCAACUCCUACGAGGGGGGGAAAACCCCUUUACCCUCAUAAUCAACAGCUCGCAGUCAAG | 0.382 |
| GGUCACGUCUCAAUCAACUCUAUCCCCAGGGAAACCCCUGGCUAACUCAACAGCUCGCAGUCAAG | -0.029 |
| GGUCACGUCUCAAUCAACUCCCAAGAGGGGGGGAAAACCCCUUUGCCCUCGAAAUCAACAGCUCGCAGUCAAG | -0.0324 |
| GGUCACGUCUCAAUCAACUCCAAAGAGGGGGGGAAAACCCCUUUGCCCUCACACUCAACAGCUCGCAGUCAAG | -0.32 |
| GGUCACGUCUCAAUCAACUCCUCAGAGGGGGGGAAAACCCCUUUACCCUCCAAAUCAACAGCUCGCAGUCAAG | 0.29 |
| GGUCACGUCUCAAUCAACUCCUAGGAGGGGGGGAAAACCCCUUUACCCUCAAUUUCAACAGCUCGCAGUCAAG | -0.728 |
| GGUCACGUCUCAAUCAACUCAUCUUCAGGAGUUUCCUCCUGCAUAGUCAACAGCUCGCAGUCAAG | 0.163 |
| GGUCACGUCUCAAUCAACUCAGUCCCAGGAGUUUCCUCCUGCAAUUUCAACAGCUCGCAGUCAAG | 0.123 |
| GGUCACGUCUCAAUCAACUCUAUUCCCAGGGAAAACCCUGGUAUUUUCAACAGCUCGCAGUCAAG | -0.468 |
| GGUCACGUCUCAAUCAACUCUUAGGAGGGGGGGAAAACCCCUUUACCCUCACACUCAACAGCUCGCAGUCAAG | -0.529 |
| GGUCACGUCUCAAUCAACUCACUAGAGGGGGGGAAAACCCCUUUACCCUCACCUUCAACAGCUCGCAGUCAAG | 0.0195 |
| GGUCACGUCUCAAUCAACUCCUUAGAGGGGGGGAAAACCCCUUUACCCUCACUCUCAACAGCUCGCAGUCAAG | 0.217 |
| GGUCACGUCUCAAUCAACUCUUCUUCCAGGGAAACCCCUGGCGUUUUCAACAGCUCGCAGUCAAG | -0.228 |
| GGUCACGUCUCAAUCAACUCAAACGAGGGGGGGAAAACCCCUUUACCCUCACAAUCAACAGCUCGCAGUCAAG | 0.141 |
| GGUCACGUCUCAAUCAACUCAAUCUCAGGAGUUUUCUCCUGCUAAUUCAACAGCUCGCAGUCAAG | 0.113 |
| GGUCACGUCUCAAUCAACUCUUCGUCCAGGGAAAACCCUGGUUUAUUCAACAGCUCGCAGUCAAG | 0.152 |
| GGUCACGUCUCAAUCAACUCAUUCUCAGGAGUUUUCUCCUGCAAUUUCAACAGCUCGCAGUCAAG | -0.00595 |
| GGUCACGUCUCAAUCAACUCAUCCUCAGGAGUUUCCUCCUGCUUACUCAACAGCUCGCAGUCAAG | 0.00531 |
| GGUCACGUCUCAAUCAACUCUUUCUCCAGGGAAAACCCUGGCAUGUUCAACAGCUCGCAGUCAAG | 0.117 |
| GGUCACGUCUCAAUCAACUCUACUUCCAGGGAAAACCCUGGCUAUGUCAACAGCUCGCAGUCAAG | -0.00788 |
| GGUCACGUCUCAAUCAACUCAUCCUCAGGAGUUUCCUCCUGUAUUCUCAACAGCUCGCAGUCAAG | 0.0834 |

| Sequence | binding signal (log2 fold change) |
| --- | --- |
| GGUCACGUCUCAAUCAACUCUAUUCCAGGAGUUUCCUCCUGCAUAUUCAACAGCUCGCAGUCAAG | 0.0229 |
| GGUCACGUCUCAAUCAACUCUUCCUCCAGGGAAAUCCCUGGCAAAUUCAACAGCUCGCAGUCAAG | -0.0463 |
| GGUCACGUCUCAAUCAACUCUUCUUCCAGGGAAAACCCUGGCAAUCUCAACAGCUCGCAGUCAAG | -0.00149 |
| GGUCACGUCUCAAUCAACUCUUUUCCCAGGGAAACCCCUGGUUAUCUCAACAGCUCGCAGUCAAG | -0.0184 |
| GGUCACGUCUCAAUCAACUCCAUAGAGGGGGGGAAAACCCCUUUGCCCUCAUAAUCAACAGCUCGCAGUCAAG | -0.217 |
| GGUCACGUCUCAAUCAACUCUUUAGAGGGGGGGAAAACCCCUUUGCCCUCAACCUCAACAGCUCGCAGUCAAG | -0.0612 |
| GGUCACGUCUCAAUCAACUCUUCUCCCAGGGAAAUCCCUGGUAAACUCAACAGCUCGCAGUCAAG | 0.359 |
| GGUCACGUCUCAAUCAACUCUUCUCCAGGAGUUUUCUCCUGUUUUUUCAACAGCUCGCAGUCAAG | 0.0665 |
| GGUCACGUCUCAAUCAACUCUUCUCCAGGAGUUUUCUCCUGCUUAUUCAACAGCUCGCAGUCAAG | -0.0236 |
| GGUCACGUCUCAAUCAACUCUUUCUCAGGAGUUUUCUCCUGCAAUGUCAACAGCUCGCAGUCAAG | 0.0328 |
| GGUCACGUCUCAAUCAACUCUUUAGAGGGGGGGAAAACCCCUUUGCCCUCGAAUUCAACAGCUCGCAGUCAAG | 0.388 |
| GGUCACGUCUCAAUCAACUCUUUCCCCAGGGAAACCCCUGGCUAUGUCAACAGCUCGCAGUCAAG | -0.161 |
| GGUCACGUCUCAAUCAACUCUUCCCCAGGAGUUUACUCCUGCAUUCUCAACAGCUCGCAGUCAAG | 0.0679 |
| GGUCACGUCUCAAUCAACUCUUCGUCCAGGGAAACCCCUGGUAAUUUCAACAGCUCGCAGUCAAG | 0.0379 |
| GGUCACGUCUCAAUCAACUCACACGAGGGGGGGAAAACCCCUUUACCCUCAAUUUCAACAGCUCGCAGUCAAG | 0.119 |
| GGUCACGUCUCAAUCAACUCAGUCUCAGGAGUUUACUCCUGCUUUUUCAACAGCUCGCAGUCAAG | -0.105 |
| GGUCACGUCUCAAUCAACUCUACUUCCAGGGAAACCCCUGGUAAUCUCAACAGCUCGCAGUCAAG | -0.0145 |
| GGUCACGUCUCAAUCAACUCAUUUCCCAGGGAAACCCCUGGUUAUCUCAACAGCUCGCAGUCAAG | -0.00494 |
| GGUCACGUCUCAAUCAACUCAAUCCCCAGGGAAAUCCCUGGUUUUCUCAACAGCUCGCAGUCAAG | 0.0358 |
| GGUCACGUCUCAAUCAACUCAUCUUCCAGGGAAACCCCUGGCAUACUCAACAGCUCGCAGUCAAG | 0.113 |
| GGUCACGUCUCAAUCAACUCAACUUCAGGAGUUUCCUCCUGCAAACUCAACAGCUCGCAGUCAAG | 0.0453 |
| GGUCACGUCUCAAUCAACUCUAUUUCAGGAGUUUCCUCCUGCUAUUUCAACAGCUCGCAGUCAAG | 0.0697 |
| GGUCACGUCUCAAUCAACUCUCUAGAGGGGGGGAAAACCCCUUUGCCCUCAACAUCAACAGCUCGCAGUCAAG | 0.0563 |
| GGUCACGUCUCAAUCAACUCAUCGUCAGGAGUUUACUCCUGCUUUUUCAACAGCUCGCAGUCAAG | -0.387 |
